{"source": "PubChem BioAssay AID2675", "about": "(National Center for Advancing Translational Sciences (NCATS), 2010)", "note": "The whole screen tested about 280,000 compounds, of which about 100 (0.036%) were called active. Inconclusive means that the source gave no clear call. Such entries were picked first, then a sample of the others. Calls come from the whole dose curve; as a rule, active = well fitted inhibition curve with a large enough effect in the signal ratio, with a control signal flat (not every such curve was filed as active); inconclusive = small, poorly fitted or top-dose-only effect, or effect the other way, or a change in a side signal; inactive = no such curve, though single readings can be large or run the other way; the % refers to the signal ratio. A potency beside an inconclusive call is a rough fit, not a confirmed value. A note “side channel” means that the fit belongs to a control or component signal, not to the main read-out. % is set by controls: 0 for no effect and ±100 for the full control effect; potency is the fitted concentration of half-maximal effect; tags give direction and shape of the fitted curve or compound fluorescence and quenching.", "data": [{"biological_target": "Muscleblind-like protein 1 (Homo sapiens) (UniProt Q9NR56)", "sequence (Q9NR56 whole entry, looked up)": "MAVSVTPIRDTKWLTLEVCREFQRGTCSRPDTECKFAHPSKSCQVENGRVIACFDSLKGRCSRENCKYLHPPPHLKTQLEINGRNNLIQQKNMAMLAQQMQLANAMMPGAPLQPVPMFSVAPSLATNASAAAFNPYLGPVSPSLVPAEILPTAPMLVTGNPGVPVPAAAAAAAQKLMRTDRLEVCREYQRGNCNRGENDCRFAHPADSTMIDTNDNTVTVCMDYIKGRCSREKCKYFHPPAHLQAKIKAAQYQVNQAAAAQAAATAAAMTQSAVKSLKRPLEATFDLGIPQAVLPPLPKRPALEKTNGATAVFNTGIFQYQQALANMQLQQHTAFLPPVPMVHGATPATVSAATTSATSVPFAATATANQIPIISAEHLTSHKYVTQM", "assay": "qHTS Assay for Inhibitors of MBNL1-poly(CUG) RNA binding", "conditions": "TR-FRET MBNL1-His/biotin-(CUG)12 binding, 665/545 ratio; activity change, negative = inhibition: at 57.5 µM (top of the series)", "in_short": "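Compounds (final 92 nM to 58 uM) are added to His-tagged MBNL1 and biotin-(CUG)12, then terbium anti-His antibody and streptavidin-XL665 (5 nM final). After 60 min at room temperature, the 665/545 nm ratio is read.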", "values": [{"smiles": "O=C(Nc1ccc(Cl)cc1C(=O)NCCN1CCOCC1)c1ccco1", "Potency": "inconclusive: 3.98 µM [quencher, side channel, single point]"}, {"smiles": "COc1ccc(-c2cc(=O)c3c(OC)c(OC)c(OC)c(OC)c3o2)cc1OC", "Potency": "inconclusive: 25.1 µM [quencher, side channel, single point]"}, {"smiles": "N#C/C(=C/c1cn(CC(=O)O)c2ccccc12)C(=O)NCc1ccccc1", "Potency": "inconclusive: 22.4 µM [quencher, side channel, partial curve]"}, {"smiles": "Cc1cc(C)cc(OCC(=O)N/N=C/c2ccc([N+](=O)[O-])o2)c1", "Potency": "inconclusive: 14.1 µM [quencher, partial curve]"}, {"smiles": "O=C(NCc1ccco1)c1ccc(Oc2ccccc2)cc1", "activity change, negative = inhibition": "inactive: 4.44%"}, {"smiles": "N#CC1=C(SCc2ccccc2)NC(=O)CC1c1ccc(O)cc1", "note": "(configuration not stated)", "Potency": "inconclusive: 7.94 µM [quencher, side channel, full curve, poor fit]"}, {"smiles": "CC(=O)NC1CCN(CC(=O)Nc2cccc([N+](=O)[O-])c2)CC1", "Potency": "inconclusive: 10 µM [quencher, side channel, partial curve]"}, {"smiles": "COc1ccccc1N1CCN(S(=O)(=O)c2ccc3c(c2)n(C)c(=O)n3C)CC1", "activity change, negative = inhibition": "inactive: 3.5%"}, {"smiles": "O=C(N/N=C\\c1ccc2c(c1)OCO2)c1ccco1", "Potency": "inconclusive: 8.91 µM [quencher, side channel, full curve]"}, {"smiles": "O=C(c1cccnc1Cl)N1CCOCC1", "activity change, negative = inhibition": "inactive: -5.31%"}, {"smiles": "O=[N+]([O-])c1cccc(/C=N/Nc2nc(NCc3ccccc3)nc(N3CCOCC3)n2)c1O", "activity change, negative = inhibition": "inactive: -14.6%"}, {"smiles": "Nc1n[nH]c2cc(=O)n(-c3ccc(Cl)cc3)nc12", "Potency": "inconclusive: 14.1 µM [quencher, side channel, partial curve]"}, {"smiles": "COc1ccc2c(c1)C(c1cccs1)=NNC(c1ccncc1)=N2", "Potency": "inconclusive: 20 µM [quencher, side channel, single point]"}, {"smiles": "O=C(COc1ccc(-c2nnco2)cc1)N1CCN(S(=O)(=O)c2ccc3ccccc3c2)CC1", "activity change, negative = inhibition": "inactive: 13.4%"}, {"smiles": "COc1ccccc1N1CCN(c2ccc([N+](=O)[O-])cn2)CC1", "Potency": "inconclusive: 22.4 µM [quencher, partial curve]"}, {"smiles": "FC(F)(F)c1nc(N2CCCC2)ncc1-c1nnnn1-c1ccccc1", "activity change, negative = inhibition": "inactive: 1.31%"}, {"smiles": "CC(C)c1cc(=O)oc2c3c4c(cc12)CCCN4CCC3", "Potency": "inconclusive: 8.91 µM [quencher, side channel, partial curve]"}, {"smiles": "COc1nccnc1NS(=O)(=O)c1ccc(NC(=S)NC(=O)c2ccc(F)cc2)cc1", "activity change, negative = inhibition": "inactive: -25.5%"}, {"smiles": "CCCCC[n+]1ccn(-c2nc3ccccc3nc2[N-]S(=O)(=O)c2ccccc2)c1", "Potency": "inconclusive: 22.4 µM [quencher, side channel, single point]"}, {"smiles": "COc1ccc2nc(N=NC3=C(O)CC(C)(C)CC3=O)sc2c1", "Potency": "inconclusive: 14.1 µM [quencher, side channel, partial curve]"}, {"smiles": "Cc1ccc(NC(=O)C2=CC(c3ccc(C)cc3)=NS(=O)(=O)N2C)cc1", "Potency": "inconclusive: 39.8 µM [quencher, side channel, single point]"}, {"smiles": "Cc1ccc(CNC(=O)Cn2cnc3cc([N+](=O)[O-])ccc3c2=O)cc1", "Potency": "inconclusive: 7.08 µM [quencher, side channel, partial curve]"}, {"smiles": "Cn1c(C(=O)NCCN2CCOCC2)cc2c(=O)n(C)c3ccccc3c21", "activity change, negative = inhibition": "inactive: -9.54%"}, {"smiles": "Cc1occc1C(=O)N(C)CC1CCCN(CCc2ccccc2F)C1", "note": "(configuration not stated)", "activity change, negative = inhibition": "inactive: -15%"}, {"smiles": "CCN(CC)c1ccc(/C=N/NC(=O)CNC(=O)c2ccc3c(c2)OCCO3)cc1", "Potency": "inconclusive: 31.6 µM [quencher, side channel, single point]"}, {"smiles": "CNc1ccc(/C=C(\\C#N)C(=O)Nc2ccccn2)cc1[N+](=O)[O-]", "Potency": "inconclusive: 7.08 µM [quencher, side channel, partial curve]"}, {"smiles": "Cc1ccc(-c2nnc(-c3ccc(NC(=O)c4ccco4)cc3)o2)cc1", "activity change, negative = inhibition": "inactive: 1.74%"}, {"smiles": "CCOc1ccc([N+](=O)[O-])c(N)c1", "Potency": "inconclusive: 31.6 µM [quencher, side channel, single point]"}, {"smiles": "O=[N+]([O-])c1ccc(N2CCN(Cc3ccc(Br)o3)CC2)cc1", "Potency": "inconclusive: 28.2 µM [quencher, side channel, partial curve]"}, {"smiles": "COc1ccc(CNC(=O)COC(=O)/C=C/c2cccc(Br)c2)cc1OC", "activity change, negative = inhibition": "inactive: 1.16%"}, {"smiles": "Cc1nc(NC(=O)/C=C/c2ccccc2)sc1C(=O)Nc1ccccc1Cl", "activity change, negative = inhibition": "inactive: -4.11%"}, {"smiles": "O=C(CSc1ncccc1C(=O)O)c1ccc2ccccc2c1", "Potency": "inconclusive: 28.2 µM [quencher, side channel, single point]"}, {"smiles": "CCCCCCn1cnc2c(c1=O)c1nc3ccccc3nc1n2/N=C/c1ccco1", "Potency": "inconclusive: 7.94 µM [quencher, side channel, full curve]"}, {"smiles": "N#Cc1cc(-c2ccc(Cl)cc2)cn(Cc2c(Cl)cccc2Cl)c1=O", "Potency": "inconclusive: 0.708 µM [quencher, side channel, full curve]"}, {"smiles": "O=C(c1cc2ccccc2o1)c1cccs1", "Potency": "inconclusive: 14.1 µM [quencher, side channel, partial curve]"}, {"smiles": "O=C(/C=C/c1ccccc1)Nc1nnc(-c2ccco2)o1", "activity change, negative = inhibition": "inactive: 11.9%"}, {"smiles": "COc1cc(/C=C2\\CCOC2=O)cc(OC)c1OC", "Potency": "inconclusive: 15.8 µM [quencher, side channel, partial curve]"}, {"smiles": "COC(=O)c1cc(S(=O)(=O)N2CCOCC2)c(Cl)cc1N1CCOCC1", "activity change, negative = inhibition": "inactive: -0.94%"}, {"smiles": "COc1cccc(NC2=C(NCCO)C(=O)c3ccccc3C2=O)c1", "Potency": "inconclusive: 14.1 µM [quencher, side channel, partial curve]"}, {"smiles": "Cc1ccc(OCCOCCN2CCCCC2)c([N+](=O)[O-])c1", "activity change, negative = inhibition": "inactive: 6.75%"}, {"smiles": "CCC(=O)Nc1cccc(C2=NOC3(C2)C[C@@H](C(N)=O)N(C(=O)c2cc([N+](=O)[O-])cc([N+](=O)[O-])c2)C3)c1", "note": "(some centres not stated)", "Potency": "inconclusive: 15.8 µM [quencher, side channel, partial curve]"}, {"smiles": "CCC(C(=O)NC1CCCCC1)n1c(SCc2ccc(F)cc2)nc2ccncc21", "note": "(configuration not stated)", "activity change, negative = inhibition": "inactive: 27.7%"}]}]}
